From a compilation of properties of binary mixtures (doi:10.1007/s10953-019-00868-0)
Some of these densities may be calculated back from excess volumes.

Assay: xn = mol fraction of the nth substance listed
Conditions: 101.3 kPa

NCCNCCN + CCCC[n+]1ccn(C)c1.F[B-](F)(F)F
mass density [kg/m3]
Conditions | 298.15 K | 303.15 K | 308.15 K | 313.15 K | 318.15 K | 323.15 K | 328.15 K | 333.15 K
x2 = 0 | – | 942.5 | 937.5 | 932.5 | 929.1 | 925.7 | 921.5 | 917.3
x2 = 0.051 | 968.9 | 965.9 | 961.5 | 956.9 | – | 951.1 | 947.4 | 943.6
x2 = 0.1986 | 1026.1 | 1023.1 | 1019 | – | 1012.1 | 1008.9 | 1005.2 | –
x2 = 0.2998 | 1059.5 | – | – | 1048.7 | 1045.8 | – | – | –
x2 = 0.3995 | – | 1085.4 | 1081.8 | – | 1075.1 | – | – | 1064.3
x2 = 0.4992 | 1113.6 | – | 1106.7 | – | 1100.1 | 1096.5 | – | –
x2 = 0.5905 | – | – | 1126.3 | 1122.6 | 1119.9 | – | 1113.2 | 1109.6
x2 = 0.6974 | 1153.4 | – | 1146.4 | – | 1140 | 1136.5 | – | –
x2 = 0.8012 | 1171.4 | 1167.9 | 1164.3 | 1160.3 | 1157.8 | 1154.2 | 1151.2 | 1147.6
x2 = 0.8948 | 1186.5 | – | 1179.4 | 1175.4 | 1173 | 1169.2 | 1166.3 | 1162.7
x2 = 0.9496 | 1194.6 | 1191 | 1187.6 | 1183.6 | 1181.3 | – | 1174.4 | –

CCCC[n+]1ccn(C)c1.F[B-](F)(F)F + NCCNCCN
x1 = 1
Conditions | mass density [kg/m3]
313.15 K | 1189.4
318.15 K | 1186.8
323.15 K | 1182.9
333.15 K | 1176
